# The other results are listed elsewhere or left out.
# Key:
# Assay in all cases: glycan array binding signal (z-score within array); higher = stronger binding
# Details in all cases: glycan notation: IUPAC condensed, linker removed
# [1] = biological target: GlcNAc(b1-3)Gal(b1-4)GlcNAc(b1-3)Gal(b1-4)GlcNAc(b1-3)Gal(b1-4)GlcNAc(b1-3)Gal(b1-4)GlcNAc(b1-2)[GlcNAc(b1-3)Gal(b1-4)GlcNAc(b1-3)Gal(b1-4)GlcNAc(b1-3)Gal(b1-4)GlcNAc(b1-3)Gal(b1-4)GlcNAc(b1-6)]Man(a1-6)[GlcNAc(b1-3)Gal(b1-4)GlcNAc(b1-3)Gal(b1-4)GlcNAc(b1-3)Gal(b1-4)GlcNAc(b1-3)Gal(b1-4)GlcNAc(b1-2)Man(a1-3)]Man(b1-4)GlcNAc(b1-4)[Fuc(a1-6)]GlcNAc
# Method in brief: (§1)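 Arrays were curated from the Consortium for Functional Glycomics database, 3228 in total, and kept only where the protein sequence was available. Binding is expressed as a within-array Z-score. This score was averaged across arrays of the same protein sequence at different concentrations or buffers and across linkers, and negative values can be read as non-binding.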
# [2] = biological target: GlcNAc(b1-3)Gal(b1-4)GlcNAc(b1-3)Gal(b1-4)GlcNAc(b1-3)GalNAc
# Method in brief: as §1
# [3] = biological target: GlcNAc(b1-3)Gal(b1-4)GlcNAc(b1-3)GalNAc
# Method in brief: as §1
# [4] = biological target: GlcNAc(b1-3)Gal(b1-4)GlcNAc(b1-3)[GlcNAc(b1-3)Gal(b1-4)GlcNAc(b1-3)]GalNAc
# Method in brief: as §1
# [5] = biological target: GlcNAc(b1-3)Gal(b1-4)GlcNAc(b1-6)[Gal(b1-3)]GalNAc
# Method in brief: as §1
# [6] = biological target: GlcNAc(b1-3)Gal(b1-4)GlcNAc(b1-6)[GlcNAc(b1-3)Gal(b1-3)]GalNAc
# Method in brief: as §1
# [7] = biological target: GlcNAc(b1-3)Gal(b1-4)GlcNAc(b1-6)[GlcNAc(b1-3)]Gal(b1-4)GlcNAc
# Method in brief: as §1
# GlcNAc(b1-3)GalNAc = biological target: GlcNAc(b1-3)GalNAc
# Method in brief: as §1
# GlcNAc(b1-3)Man = biological target: GlcNAc(b1-3)Man
# Method in brief: as §1
# [8] = biological target: GlcNAc(b1-3)[GlcNAc(b1-4)][GlcNAc(b1-6)]GlcNAc
# Method in brief: as §1
# [9] = biological target: GlcNAc(b1-3)[GlcNAc(b1-6)]Gal(b1-4)GlcNAc
# Method in brief: as §1
# [10] = biological target: GlcNAc(b1-3)[GlcNAc(b1-6)]GalNAc
# Method in brief: as §1
# [11] = biological target: GlcNAc(b1-4)Gal(b1-4)GlcNAc
# Method in brief: as §1
# GlcNAc(b1-4)GlcNAc = biological target: GlcNAc(b1-4)GlcNAc
# Method in brief: as §1
# [12] = biological target: GlcNAc(b1-4)GlcNAc(b1-4)GlcNAc
# Method in brief: as §1
# [13] = biological target: GlcNAc(b1-4)GlcNAc(b1-4)GlcNAc(b1-4)GlcNAc(b1-4)GlcNAc
# Method in brief: as §1
# [14] = biological target: GlcNAc(b1-4)GlcNAc(b1-4)GlcNAc(b1-4)GlcNAc(b1-4)GlcNAc(b1-4)GlcNAc
# Method in brief: as §1
# [15] = biological target: GlcNAc(b1-4)[GlcNAc(b1-6)]GalNAc
# Method in brief: as §1
# [16] = biological target: GlcNAc(b1-6)Gal(b1-4)GlcNAc
# Method in brief: as §1
# GlcNAc(b1-6)GalNAc = biological target: GlcNAc(b1-6)GalNAc
# Method in brief: as §1
# [17] = biological target: GlcNAc6S(b1-3)Gal(b1-4)GlcNAc
# Method in brief: as §1
# Kdn(a2-3)Gal(b1-3)GalNAc = biological target: Kdn(a2-3)Gal(b1-3)GalNAc
# Method in brief: as §1
# Kdn(a2-3)Gal(b1-3)GlcNAc = biological target: Kdn(a2-3)Gal(b1-3)GlcNAc
# Method in brief: as §1
# Kdn(a2-3)Gal(b1-4)Glc = biological target: Kdn(a2-3)Gal(b1-4)Glc
# Method in brief: as §1
# Kdn(a2-3)Gal(b1-4)GlcNAc = biological target: Kdn(a2-3)Gal(b1-4)GlcNAc
# Method in brief: as §1
# [18] = biological target: Kdn(a2-3)Gal(b1-4)[Fuc(a1-3)]GlcNAc
# Method in brief: as §1
# Kdn(a2-6)Gal(b1-4)GlcNAc = biological target: Kdn(a2-6)Gal(b1-4)GlcNAc
# Method in brief: as §1
# [19] = biological target: Man(a1-2)Man(a1-2)Man(a1-3)Man
# Method in brief: as §1
# [20] = biological target: Man(a1-2)Man(a1-2)Man(a1-6)[Man(a1-3)]Man
# Method in brief: as §1
# Man(a1-2)Man(a1-3)Man = biological target: Man(a1-2)Man(a1-3)Man
# Method in brief: as §1
# [21] = biological target: Man(a1-2)Man(a1-3)[Man(a1-2)Man(a1-6)]Man
# Method in brief: as §1
# [22] = biological target: Man(a1-2)Man(a1-3)[Man(a1-2)Man(a1-6)]Man(a1-6)[Man(a1-2)Man(a1-2)Man(a1-3)]Man
# Method in brief: as §1
# [23] = biological target: Man(a1-2)Man(a1-3)[Man(a1-2)Man(a1-6)]Man(a1-6)[Man(a1-2)Man(a1-2)Man(a1-3)]Man(b1-4)GlcNAc(b1-4)GlcNAc
# Method in brief: as §1
# [24] = biological target: Man(a1-2)Man(a1-3)[Man(a1-6)]Man(a1-6)[Man(a1-2)Man(a1-3)]Man(b1-4)GlcNAc(b1-4)GlcNAc
# Method in brief: as §1
# [25] = biological target: Man(a1-2)Man(a1-6)[Man(a1-3)]Man(a1-6)[Man(a1-2)Man(a1-2)Man(a1-3)]Man
# Method in brief: as §1
# [26] = biological target: Man(a1-2)Man(a1-6)[Man(a1-3)]Man(a1-6)[Man(a1-2)Man(a1-2)Man(a1-3)]Man(b1-4)GlcNAc(b1-4)GlcNAc
# Method in brief: as §1
# Man(a1-3)[Man(a1-6)]Man = biological target: Man(a1-3)[Man(a1-6)]Man
# Method in brief: as §1
binder,measurement,setting,value
Epa1to9 (Candida glabrata) (protein) MGSSHHHHHHSSGLVPRGSHMTSSNDISLASKDPTTFPLGCSPDITTPKKGLSMELYSYDFRKKGSYPCWDAAYLDPNYPRTGYKSHRLLAKVDGVTGNINFYYHATKGCTPQLGHLPASYNYPKPLTMTNFTMLLYGYFRPKVTGFHTFTISADDLLFVNFGAGNAFDCCRRDSSADHFGNYQAYAIWGSKTAKDELTVHLDAGVYYPIRLFYNNRDYHGALSFTFKTESNENTVSDFSEYFFSLDDTEEGCPGLISYD,glycan array binding signal (z-score),[1],-0.297
same,glycan array binding signal (z-score),[2],-0.354
same,glycan array binding signal (z-score),[3],-0.347
same,glycan array binding signal (z-score),[4],-0.285
same,glycan array binding signal (z-score),[5],0.585
same,glycan array binding signal (z-score),[6],-0.332
same,glycan array binding signal (z-score),[7],-0.35
same,glycan array binding signal (z-score),GlcNAc(b1-3)GalNAc,-0.352
same,glycan array binding signal (z-score),GlcNAc(b1-3)Man,-0.495
same,glycan array binding signal (z-score),[8],-0.347
same,glycan array binding signal (z-score),[9],-0.347
same,glycan array binding signal (z-score),[10],-0.342
same,glycan array binding signal (z-score),[11],-0.339
same,glycan array binding signal (z-score),GlcNAc(b1-4)GlcNAc,-0.419
same,glycan array binding signal (z-score),[12],-0.353
same,glycan array binding signal (z-score),[13],-0.346
same,glycan array binding signal (z-score),[14],-0.351
same,glycan array binding signal (z-score),[15],-0.353
same,glycan array binding signal (z-score),[16],1.05
same,glycan array binding signal (z-score),GlcNAc(b1-6)GalNAc,-0.357
same,glycan array binding signal (z-score),[17],0.811
same,glycan array binding signal (z-score),Kdn(a2-3)Gal(b1-3)GalNAc,-0.38
same,glycan array binding signal (z-score),Kdn(a2-3)Gal(b1-3)GlcNAc,-0.312
same,glycan array binding signal (z-score),Kdn(a2-3)Gal(b1-4)Glc,-0.306
same,glycan array binding signal (z-score),Kdn(a2-3)Gal(b1-4)GlcNAc,-0.295
same,glycan array binding signal (z-score),[18],-0.241
same,glycan array binding signal (z-score),Kdn(a2-6)Gal(b1-4)GlcNAc,-0.284
same,glycan array binding signal (z-score),[19],-0.358
same,glycan array binding signal (z-score),[20],-0.345
same,glycan array binding signal (z-score),Man(a1-2)Man(a1-3)Man,-0.36
same,glycan array binding signal (z-score),[21],-0.366
same,glycan array binding signal (z-score),[22],-0.377
same,glycan array binding signal (z-score),[23],-0.336
same,glycan array binding signal (z-score),[24],-0.358
same,glycan array binding signal (z-score),[25],-0.478
same,glycan array binding signal (z-score),[26],-0.362
same,glycan array binding signal (z-score),Man(a1-3)[Man(a1-6)]Man,-0.287
